Data published in PubChem BioAssay AID504339 (National Center for Advancing Translational Sciences (NCATS), 2011).
The campaign covered roughly 390,000 compounds. About 17,000 (4.4%) were called active. Inconclusive results, whose numbers are uncertain, are shown with a selection of clear calls. The call rests on the fitted dose curve; in most records, active means well fitted inhibition curve with a large enough effect; inconclusive means small, poorly fitted or top-dose-only effect; inactive means no such curve, though single readings can be large or run the other way. Where the call is inconclusive, the potency comes from a doubtful curve fit.

Target: Lysine-specific demethylase 4A (Homo sapiens) (UniProt O75164)
Assay: qHTS Assay for Inhibitors of JMJD2A-Tudor Domain; further: nearly all actives have a fitted effect of over 50% in size
Settings: AlphaScreen JMJD2A-Tudor / H3K4me3 peptide binding; activity change, negative = inhibition: at 114 µM (top of the series)
On the % scale 0 is the no-effect control and ±100 the full control effect; potency means the concentration at half of the fitted maximal effect; tags describe the fitted curve by direction and shape.

UniProt O75164, sequence (O75164 whole entry, looked up, the tested form may be a part): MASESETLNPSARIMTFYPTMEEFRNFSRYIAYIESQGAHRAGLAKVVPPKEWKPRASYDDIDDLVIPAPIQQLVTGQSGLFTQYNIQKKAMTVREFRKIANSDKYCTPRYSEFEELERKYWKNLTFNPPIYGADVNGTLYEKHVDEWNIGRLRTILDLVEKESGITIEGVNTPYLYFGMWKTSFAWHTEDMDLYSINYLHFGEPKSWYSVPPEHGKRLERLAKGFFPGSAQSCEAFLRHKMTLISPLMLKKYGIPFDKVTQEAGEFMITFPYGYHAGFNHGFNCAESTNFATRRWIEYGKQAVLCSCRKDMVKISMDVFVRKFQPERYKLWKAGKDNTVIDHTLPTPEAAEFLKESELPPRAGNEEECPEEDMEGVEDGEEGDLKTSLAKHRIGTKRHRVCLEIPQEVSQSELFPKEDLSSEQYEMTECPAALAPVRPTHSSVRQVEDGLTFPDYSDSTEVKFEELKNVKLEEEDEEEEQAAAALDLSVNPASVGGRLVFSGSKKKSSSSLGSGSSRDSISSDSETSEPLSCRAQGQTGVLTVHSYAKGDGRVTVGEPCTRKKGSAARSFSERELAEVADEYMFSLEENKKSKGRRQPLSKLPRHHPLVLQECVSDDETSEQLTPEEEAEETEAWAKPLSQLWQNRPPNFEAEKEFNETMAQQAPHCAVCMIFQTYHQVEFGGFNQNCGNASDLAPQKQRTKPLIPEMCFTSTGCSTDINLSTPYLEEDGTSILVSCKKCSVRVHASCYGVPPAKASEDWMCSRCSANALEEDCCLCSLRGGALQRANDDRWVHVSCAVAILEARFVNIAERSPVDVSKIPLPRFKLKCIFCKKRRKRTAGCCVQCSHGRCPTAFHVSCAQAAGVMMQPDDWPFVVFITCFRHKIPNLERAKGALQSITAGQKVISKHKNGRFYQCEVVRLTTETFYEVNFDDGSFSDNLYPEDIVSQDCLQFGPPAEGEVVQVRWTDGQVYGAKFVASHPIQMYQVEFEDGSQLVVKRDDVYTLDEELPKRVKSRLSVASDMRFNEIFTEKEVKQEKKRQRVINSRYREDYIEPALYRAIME

Structure (SMILES) | Potency | activity change, negative = inhibition
NC(=O)Nn1c(CCC(=O)O)ccc1-c1ccc(Br)cc1 | inconclusive: 89.1 µM [inhibitor, partial curve] | –
Cc1cc(C)c2oc(-c3cccc(NC(=O)c4cccc(F)c4)c3C)nc2c1 | – | inactive: -10.8%
COc1ccc(Br)cc1C(=O)Nc1ccccc1N1CCN(C(=O)c2ccccc2)CC1 | inconclusive: 20 µM [inhibitor, full curve] | –
O=[N+]([O-])c1cc(CS(=O)(=O)Oc2ccc(Cl)cc2)c(O)c([N+](=O)[O-])c1 | inconclusive: 50.1 µM [inhibitor, partial curve] | –
Cc1cccc(NC(=O)CSc2nc(-c3cccs3)nc3cc(=O)[nH]n23)c1 | inconclusive: 89.1 µM [inhibitor, partial curve] | –
CC(C)N(C(=O)[C@H]1C[C@H](CC(=O)NC(C)(C)C)C(=O)N2CCc3c([nH]c4cc(-c5ccco5)ccc34)[C@]12C)C(C)C | active: 50.1 µM | –
O=C1C=C(c2ccc3ncccc3c2)C[C@@H](c2ccc3c(c2)OCO3)C1 | inconclusive: 20 µM [inhibitor, full curve, poor fit] | –
O=C(Nc1ccc(Br)cc1)c1ccc2ncsc2c1 | – | inactive: -7.77%
Cc1ccc(O)c(C(=O)c2cnc3c(c2)COc2ccc(C)cc2-3)c1 | inconclusive: 35.5 µM [inhibitor, partial curve] | –
C[C@@]12C=Cc3occc3[C@H]1CC[C@]13CC(=O)[C@@H](CC[C@H]12)C3 | – | inactive: -18.6%
Cc1ccc(NC(=S)NCc2ccc3[nH]c4c(c3c2)CCCC4)cc1 | active: 50.1 µM | –
Cc1ccc(NC(=O)CSc2nc(=O)n(Cc3ccccn3)c3c2CCC3)cc1F | – | inactive: -8.44%
O=C(/C=C/c1ccc(Br)o1)NC(c1ccccc1)c1ccccc1 | inconclusive: 70.8 µM [inhibitor, partial curve] | –
COc1ccc(CN2CCC(Cc3ccccc3)CC2)c(C)c1C | active: 28.2 µM | –
Cc1ccc(NC(=O)CSc2nc3ccc(NC(=O)c4ccco4)cc3s2)cc1 | – | inactive: -34.8%
Cc1cccc2sc(NC(=O)Cn3cccc3)nc12 | inconclusive: 50.1 µM [inhibitor, partial curve] | –
Cc1cc(Br)ccc1NC(=O)CN1CCN(c2ccccn2)CC1 | – | inactive: -13.1%
Cc1cccc(Oc2cc([N+](=O)[O-])cc3c2C(=O)Nc2ccccc2O3)c1 | inconclusive: 28.2 µM [inhibitor, partial curve] | –
CCCCN(CC)C(=O)Cc1cn(C)c2ccccc12 | – | inactive: -5.71%
Cc1ccc(S(=O)(=O)NC(=O)c2ccc(Br)o2)c(C)c1 | – | inactive: -9.72%
C#CCOCCOCCOCCNc1nc(N2CCN(C(=O)CCCCCCCCCCNC(=O)[C@H](CCCCN)n3cc(C)nn3)CC2)nc(N2CCN(C(=O)CCCCCCCCCCNC(=O)[C@H](CCCN=C(N)N)n3cc(C[C@@H](C)CC)nn3)CC2)n1 | active: 56.2 µM | –
OCCN1CCN(CC(O)COCCOc2ccc(Br)cc2)CC1 (stereo unspecified) | active: 17.8 µM | –
COc1ccc(N2CCN(CCCNC(=O)CN3C(=O)COc4ccccc43)CC2)cc1 | inconclusive: 89.1 µM [inhibitor, partial curve] | –

Structure (SMILES) | Potency | activity change, negative = inhibition
Cc1ccc(Cl)cc1N1CCN(C(=O)Cn2nc(C)c3sc4ccccc4c3c2=O)CC1 | inconclusive: 35.5 µM [inhibitor, partial curve] | –
COc1ccc(/C=C2\S/C(=N/S(=O)(=O)c3cccs3)NC2=O)cc1 | – | inactive: -34.3%
c1ccc(CNc2ncnc3ccccc23)cc1 | inactive | –
COc1ccccc1C(=O)NCc1ccco1 | – | inactive: -16.4%
C#Cc1cccc(NC(=O)CSc2nnc(-c3ccc(C(F)(F)F)cn3)o2)c1 | inconclusive: 89.1 µM [inhibitor, partial curve] | –
O=C(c1ncn(Cc2ccccc2)c1C(=O)N1CCN(c2ccccc2)CC1)N1CCN(c2ccccc2)CC1 | inconclusive: 56.2 µM [inhibitor, partial curve] | –
CCOC(=O)n1c(=O)oc2ccc(Cl)cc21 | active: 28.2 µM | –
C/C=C/c1ccc(OCC(=O)OCc2csc(Nc3ccc(C)cc3)n2)c(OC)c1 | inconclusive: 44.7 µM [inhibitor, partial curve] | –
COc1cc(/C=N/Nc2ccc(F)cc2F)cc(OC)c1OC | – | inactive: -3.85%
Cc1cc(C)c(OCC(O)CN2CCN(C(=O)c3ccccc3)CC2)c(C)c1 (stereo unspecified) | active: 22.4 µM | –
COc1ccc(-c2oc3ccccc3c2C#Cc2cncn2C)cc1 | inconclusive: 5.62 µM [inhibitor, full curve, poor fit] | –
Cc1cccc(OCc2n[nH]c(=S)n2Cc2ccccc2)c1 | – | inconclusive: -37% [inhibitor]
O=c1cc(COc2ccccc2Cl)nc2scc(-c3ccccc3)n12 | – | inactive: -11.3%
O=C(Cn1cnc2cc([N+](=O)[O-])ccc2c1=O)Nc1cccc(S(=O)(=O)N2CCCCC2)c1 | inconclusive: 39.8 µM [inhibitor, partial curve] | –
O=C(NCc1ccccc1)c1ccc(N2CCC3(CC2)CC(c2ccc(Cl)cc2)=NO3)c([N+](=O)[O-])c1 | – | inactive: -25.9%
Cc1cc(N2CCN(c3ccc(F)cc3)CC2)nc2cc(O)ccc12 | inconclusive: 50.1 µM [inhibitor, partial curve] | –
CCOC(=O)C1(C)/C(=N/Nc2ccccc2OC)C(=O)C(=O)N1c1ccccc1 (stereo unspecified) | active: 25.1 µM | –
Cc1cc(Oc2cc(NN3CCCCC3)c([N+](=O)[O-])cc2[N+](=O)[O-])c(C(=O)c2ccccc2)cc1Cl | inconclusive: 7.08 µM [inhibitor, full curve, poor fit] | –
CCOC(=O)C1CCN(C(=O)c2ccccc2NC(=O)c2ccc(Cl)cc2)CC1 | inconclusive: 20 µM [inhibitor, partial curve] | –
O=C(O)c1cc(NC(=O)c2ccc3c(c2)C(=O)N(Cc2ccccc2)C3=O)cc(C(=O)O)c1 | – | inactive: 9.49%
Cc1[nH]c2c(Br)cccc2c1[C@H]1[C@@H](CC#N)C1(C)C | inconclusive: 79.4 µM [inhibitor, partial curve] | –
c1ccc(C2CSc3ccccc3N2)cc1 (stereo unspecified) | inconclusive: 89.1 µM [inhibitor, partial curve] | –
N#CC1=C(Nc2ccccc2Cl)SC(c2ccccc2O)NC1=O (stereo unspecified) | inconclusive: 89.1 µM [inhibitor, single point] | –
